Measurements taken from PubChem BioAssay AID686979 (National Center for Advancing Translational Sciences (NCATS), 2013).
Values joined by “and” are separate entries in the source; they are usually repeats but may differ in a detail not shown here. Equal values may be shown once. Out of some 420,000 compounds screened, about 50,000 (12%) were called active. The inconclusive results got no clear call from the source; some entries with a clear call stand among them for comparison. Calls come from the whole dose curve; as a rule, active = well fitted inhibition curve with a large enough effect; inconclusive = small, poorly fitted or top-dose-only effect; inactive = flat fitted curve, though single readings scatter. A potency beside an inconclusive call is a rough fit, not a confirmed value.

Assay: qHTS for Inhibitors of human tyrosyl-DNA phosphodiesterase 1 (TDP1): qHTS in cells in presence of CPT; note: nearly all actives have a fitted effect of over 55% in size
Conditions: chicken DT40 Tdp1-/-;hTDP1 cells + 20 nM CPT, ATP luminescence, 48 h; activity change, negative = growth inhibition: at 46.2 µM (top of the series) unless noted
Procedure, shortened: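 Chicken DT40 Tdp1-/- cells complemented with human TDP1, 400 cells/well, exposed to compounds plus 20 nM camptothecin for at least 48 h at 37 C; viability read as ATP content by CellTiter-Glo luminescence.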
% is set by controls: 0 for no effect and ±100 for the full control effect; potency is the fitted concentration of half-maximal effect; tags give direction and shape of the fitted curve.

Compound | activity change, negative = growth inhibition | Potency
C1CNC2NCCNC2N1 (configuration not stated) | inactive: -1.01% | –
C[C@H](CCC(=O)O)[C@H]1CC[C@H]2[C@H]3C(CC[C@]12C)[C@@]1(C)CC[C@@H](O)C[C@H]1C[C@H]3O (some centres not stated) | – | inactive
CC(C)C1C(=O)N2CCCC2[C@]2(O)O[C@@](NC(=O)[C@@H]3C=C4c5cccc6[nH]cc(c56)C[C@H]4N(C)C3)(C(C)C)C(=O)N12 (some centres not stated) | – | active: 9.44 µM
O=C(C1CCN(S(=O)(=O)c2ccc(Br)s2)CC1)N1CCN(c2cccc(C(F)(F)F)c2)CC1 | – | active: 23.1 µM
O=C(Nc1nc2c(Cl)cccc2s1)c1ccc(S(=O)(=O)N2CCc3ccccc32)cc1 | – | inconclusive: 20.6 µM [inhibitor, single point]
O=C(Nc1ccc(Oc2ccccc2)cc1)c1ccc(F)c(S(=O)(=O)N2CCN(c3cccc(Cl)c3)CC2)c1 | – | active: 1.84 µM
COc1ccc(-n2c(-c3ccc(C)cc3)nc3ccccc3c2=O)cc1 | – | active: 14.6 µM
COC(=O)C1=C(C(=O)OC)C2c3ccccc3C1c1ccccc12 | inconclusive: -31.2% [inhibitor] | –
CCOC(=O)[C@]12Cc3ccccc3[C@H]1N(Cc1ccccc1)C(=O)c1cc(F)c(F)cc12 | – | inconclusive: 25.9 µM [inhibitor, single point]
CC(C)C(=O)c1cn(Cc2ccccc2C#N)c2ccccc12 | – | inconclusive: 29.1 µM [inhibitor, single point]
COc1ccc(NC(=O)c2ccco2)cc1NC(=O)COc1cccc(C)c1C | – | inconclusive: 4.11 µM [inhibitor, partial curve]
CCC(CO)Nc1ccc([N+](=O)[O-])c2cccnc12 (configuration not stated) | – | inconclusive: 29.1 µM [inhibitor, single point]
O=C(c1n[nH]c(=O)c2ccccc12)N1CCC2(CC1)OCCO2 | inactive: -8.41% | –
COc1cccc(NC(=O)CCc2nc(-c3ccc(C(C)(C)C)cc3)no2)c1 | – | inconclusive: 25.9 µM [inhibitor, single point]
CCOCCN1CCN(c2nnc3n2-c2ccc(Cl)cc2C(c2ccccc2Cl)=NC3)CC1 | – | inconclusive: 29.1 µM [inhibitor, single point]
CC(=O)Nc1cccc(-c2ccnc3c2CC(C(=O)NCc2ccco2)O3)c1 (configuration not stated) | – | active: 1.84 µM
COc1ccc(CCNCc2c(OC)ccc3ccccc23)cc1 | – | active: 13 µM
O=c1[nH]c(O)c(C=Nc2ccccc2Oc2ccccc2)c(=O)[nH]1 | inactive: -9.8% | –
COc1ccc(-n2c(O)c(/C=C3\C=Nc4ccc(Br)cc43)c(=O)[nH]c2=O)cc1 | inconclusive: -35.1% [inhibitor] | –
Cc1cc(OC(=O)N2CCCCC2)c(C(C)C)cc1[N+](C)(C)C | inconclusive: -18.7% [inhibitor] | –
Cn1c(=O)oc2cc(S(=O)(=O)N3CCC(C(=O)N4CCN(c5ccccc5)CC4)CC3)ccc21 | – | inconclusive: 18.4 µM [inhibitor, single point]
COC(=O)C1=C(c2ccc(-c3ccccc3)c(F)c2)C[C@@H]2CC[C@H]1N2C(=O)NCCc1ccccc1 | – | inconclusive: 29.1 µM [inhibitor, single point]
COc1ccc(SCC2CN(C)CCC2c2ccc(F)cc2)cc1 (configuration not stated) | – | inconclusive: 25.9 µM [inhibitor, single point]
NP(=O)(OCCCc1ccccc1)Oc1ccccc1 (configuration not stated) | inactive: -17.8% | –

Compound | activity change, negative = growth inhibition | Potency
CN1C(=O)N(C)C(=O)C2(Sc3ccccc3C2=O)C1=O | – | inconclusive: 18.4 µM [inhibitor, single point]
O=C(c1cc2c(s1)CCCCCC2)N1CCC2(CC1)OCCO2 | – | inconclusive: 18.4 µM [inhibitor, single point]
CN(C)c1ccc(/C=C2/C(=O)NC(=O)N(CCc3ccc(F)cc3)C2=O)cc1 | – | inconclusive: 29.1 µM [inhibitor, single point]
CCCOP(=O)(OCCC)c1nc(-c2ccccc2)oc1NCc1ccccc1 | – | active: 23.1 µM
CCc1cccc(C)c1NC(=S)N1CC2CC(C1)c1cccc(=O)n1C2 (configuration not stated) | inactive: -13.7% | –
Cc1sc2c(c1C)C(c1cccs1)=NCC(=O)N2CC(=O)NCc1cccs1 | – | inconclusive: 29.1 µM [inhibitor, single point]
CC(=O)OCC12CC(OC(=O)CC(C)C)C(C)=CC1OC1C(O)C(OC(C)=O)C2(C)C12CO2 (configuration not stated) | – | active: 0.0231 µM
O=c1[nH]cnc2nc(-c3ccc(N(CCCl)CCCl)cc3)[nH]c12 | – | inconclusive: 18.4 µM [inhibitor, single point]
COc1ccccc1N1CCN(Cc2cc(C)c(C)cc2O)CC1 | – | active: 23.1 µM
O=C(Oc1ccccc1)N1CCC2(CCN(Cc3ccncc3)CC2)CC1 | inactive: -0.0347% | –
O=C(c1cccs1)C1CN2CCC1CC2 (configuration not stated) | – | inconclusive: 18.4 µM [inhibitor, partial curve]
CNCCc1nc(N)n[nH]1 | inactive: -6.33% | –
CC(C)c1ccc(NC(=O)C2CCN(S(=O)(=O)c3ccc(Br)s3)CC2)cc1 | – | inconclusive: 20.6 µM [inhibitor, single point]
O=C1NCN(c2ccccc2)C12CCN(C(CCc1ccccc1)c1nnnn1Cc1ccccc1)CC2 (configuration not stated) | – | inconclusive: 25.9 µM [inhibitor, single point]
CCCC1(CC(C)C)C(=O)NC(=S)NC1=O | inactive: 5.52% | –
Cc1ccc(S(=O)(=O)CC(=O)c2cc(C)c(OC(=O)N(C)C)c(C)c2)cc1 | – | inconclusive: 29.1 µM [inhibitor, single point]
COc1ccccc1-n1c(Cc2ccccc2)nc2ccccc2c1=O | inactive: 1.77% | –
Cc1ccc(OCC(=O)N2CCN(C3CCC(c4ccccc4)CC3)CC2)cc1 (configuration not stated) | – | inconclusive: 25.9 µM [inhibitor, single point]
CCN(CC)S(=O)(=O)c1cc(NC(=O)C(C)N2CC=C(c3ccccc3)CC2)ccc1C (configuration not stated) | – | active: 8.2 µM
CC(=O)Nc1cc(C(=O)N2CCC3(CC2)OCCO3)ccc1S(=O)(=O)c1ccc(Cl)cc1 | inactive: -1.94% | –
COC(=O)C1=C(c2ccc(S(C)(=O)=O)cc2)C[C@@H]2CC[C@H]1N2C(=O)NC(C)C | inactive: -18.9% | –
Clc1ccc(CO/N=C(\Cn2ccnc2)c2ccc(Cl)cc2Cl)c(Cl)c1 | – | inconclusive: 14.6 µM [inhibitor, single point]
CCCOC(=O)Cc1ccc(OCC(=O)N(CC)CC)c(OC)c1 | inactive: -23.9% | –
COc1ccc(-c2ccc3c(c2)CN(C(=O)C(C)(C)C)Cc2cnnn2-3)cc1 | – | inconclusive: 10.3 µM [inhibitor, partial curve]

Compound | activity change, negative = growth inhibition | Potency
CC(CCc1ccccc1)NC(C)C(O)c1ccc(O)cc1 (configuration not stated) | – | inconclusive: 29.9 µM [inhibitor, single point] and inconclusive: 13 µM [inhibitor, partial curve]
CCOC(=O)C1=C(C)c2ccccc2OC1(C(=O)OCC)c1ccccc1 (configuration not stated) | – | inconclusive: 25.9 µM [inhibitor, single point]
O=C(N/N=C/c1c(O)n(Cc2ccc(F)cc2)c(=O)[nH]c1=O)c1ccccc1O | – | active: 13 µM
O=c1[nH]c(=O)n(-c2ccccc2)c(O)c1N=Nc1ccc(Br)cc1 | inactive: 0.0595% | –
CCOC(=O)C(O)(c1ccc(N(CC)C(=O)OC)cc1)C(F)(F)F (configuration not stated) | inactive: 0.208% | –
CCCC(C)C1(CC)C(=O)NC(=O)N=C1N (configuration not stated) | – | inconclusive: 14.6 µM [inhibitor, partial curve, poor fit]
OCCCBr | inactive: 5.42% [at 92.5 µM] | –
Cc1ccc(Cn2c(=O)n(CCCCC(=O)NCc3ccccc3Cl)c(=O)c3ccccc32)cc1 | – | active: 4.61 µM
O=C1NC(=O)N(c2ccccc2F)C(=O)/C1=C/c1cn(CC(=O)N2CCOCC2)c2ccccc12 | – | inconclusive: 13 µM [inhibitor, partial curve]
Cc1cccc(C)c1Oc1nc(-c2ccccc2)ncc1S(=O)(=O)c1ccccc1 | – | inconclusive: 29.1 µM [inhibitor, single point]
CCCNc1nc(OC)nc(N2CC3CC(C2)c2cccc(=O)n2C3)n1 (configuration not stated) | inactive: 0.11% | –
Oc1cc2c(cc1CN1CCN(c3ccccc3)CC1)CCC2 | – | inconclusive: 4.61 µM [inhibitor, partial curve]
COC(=O)C1=C(c2cccc(OCc3ccccc3)c2)C[C@@H]2CC[C@H]1N2C(=O)NCc1cccc(C(F)(F)F)c1 | – | active: 20.6 µM
CC(=O)OC1CN2CCC1CC2 (configuration not stated) | inactive: 0.487% | –
CCN1CCN(C(=O)COc2ccc3oc4c(c3c2)CCCC4)CC1 | – | inconclusive: 23.1 µM [inhibitor, single point]
O=C(Nc1ccc(Br)cc1C(=O)c1ccccc1)c1ccccc1 | – | inconclusive: 4.11 µM [inhibitor, single point]
CCN1CCN(c2cc(N3CCCC3)c(F)cc2[N+](=O)[O-])CC1 | – | inconclusive: 23.1 µM [inhibitor, single point]
COc1ccc(OC)c(-n2c(O)c(C=Nc3c(C)n(C)n(-c4ccccc4)c3=O)c(=O)[nH]c2=O)c1 | inactive: 8.09% | –
CC1=C(C(=O)O)N2C(=O)[C@@H](NC(=O)CCCC(=O)O)[C@H]2SC1 | inactive: -4.37% | –
CC(C)(C)c1ccc(O)c(N=Cc2c(O)ccc3ccccc23)c1 | – | active: 25.9 µM
COC(=O)C1=C(c2cccc(C#N)c2)C[C@@H]2CC[C@H]1N2C(=O)NCCOc1ccccc1Cl | – | active: 18.4 µM
Cc1cc(C)cc(Oc2nc3ccccn3c(=O)c2/C=C(\C#N)c2nc3ccccc3s2)c1 | – | inconclusive: 20.6 µM [inhibitor, single point]
CC(=O)Cc1c[nH]c2ccccc12 | – | inconclusive: 35.5 µM [inhibitor, single point]
Cc1ccc(C(C)C)c(OCCn2c(=O)oc3ccccc32)c1 | – | active: 29.1 µM
